# Results: the supplement of paper PMC8728848
# The list shows a part of the results.
# Legend:
# Experiment in all cases: glycan array binding signal (z-score within array); higher = stronger binding
# Conditions in all cases: glycan notation: IUPAC condensed, linker removed
# Fuc(a1-2)Gal = molecular target: Fuc(a1-2)Gal
# Outline: (§1)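 Glycan array binding is given as a within-array Z-score, which can be read as non-binding when negative. The arrays, 3228 of them, came from the Consortium for Functional Glycomics database and were retained only where the protein sequence was available. Z-scores were averaged across arrays of the same protein sequence at different concentrations or buffers and across linkers.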
# Fuc(a1-2)Gal(b1-3)GalNAc = molecular target: Fuc(a1-2)Gal(b1-3)GalNAc
# Outline: as §1
# [1] = molecular target: Fuc(a1-2)Gal(b1-3)GalNAc(a1-3)[Fuc(a1-2)]Gal(b1-4)Glc
# Outline: as §1
# [2] = molecular target: Fuc(a1-2)Gal(b1-3)GalNAc(a1-3)[Fuc(a1-2)]Gal(b1-4)GlcNAc
# Outline: as §1
# [3] = molecular target: Fuc(a1-2)Gal(b1-3)GalNAc(b1-3)Gal
# Outline: as §1
# [4] = molecular target: Fuc(a1-2)Gal(b1-3)GalNAc(b1-3)Gal(a1-4)Gal(b1-4)Glc
# Outline: as §1
# [5] = molecular target: Fuc(a1-2)Gal(b1-3)GalNAc(b1-4)[Neu5Ac(a2-3)]Gal(b1-4)Glc
# Outline: as §1
# Fuc(a1-2)Gal(b1-3)GlcNAc = molecular target: Fuc(a1-2)Gal(b1-3)GlcNAc
# Outline: as §1
# [6] = molecular target: Fuc(a1-2)Gal(b1-3)GlcNAc(b1-2)Man(a1-3)[Fuc(a1-2)Gal(b1-3)GlcNAc(b1-2)Man(a1-6)]Man(b1-4)GlcNAc(b1-4)GlcNAc
# Outline: as §1
# [7] = molecular target: Fuc(a1-2)Gal(b1-3)GlcNAc(b1-2)Man(a1-3)[Fuc(a1-2)Gal(b1-3)GlcNAc(b1-2)Man(a1-6)]Man(b1-4)GlcNAc(b1-4)[Fuc(a1-6)]GlcNAc
# Outline: as §1
# [8] = molecular target: Fuc(a1-2)Gal(b1-3)GlcNAc(b1-3)Gal(b1-4)Glc
# Outline: as §1
# [9] = molecular target: Fuc(a1-2)Gal(b1-3)GlcNAc(b1-3)GalNAc
# Outline: as §1
# [10] = molecular target: Fuc(a1-2)Gal(b1-3)GlcNAc(b1-3)[Fuc(a1-2)Gal(b1-3)GlcNAc(b1-6)]GalNAc
# Outline: as §1
# [11] = molecular target: Fuc(a1-2)Gal(b1-3)GlcNAc(b1-3)[Gal(b1-4)GlcNAc(b1-6)]Gal(b1-4)Glc
# Outline: as §1
# [12] = molecular target: Fuc(a1-2)Gal(b1-3)GlcNAc(b1-3)[Neu5Ac(a2-6)Gal(b1-4)GlcNAc(b1-6)]Gal(b1-4)Glc
# Outline: as §1
# [13] = molecular target: Fuc(a1-2)Gal(b1-3)GlcNAc6S
# Outline: as §1
# [14] = molecular target: Fuc(a1-2)Gal(b1-3)[Fuc(a1-4)]GlcNAc
# Outline: as §1
# [15] = molecular target: Fuc(a1-2)Gal(b1-3)[Fuc(a1-4)]GlcNAc(b1-2)Man(a1-3)[Fuc(a1-2)Gal(b1-3)[Fuc(a1-4)]GlcNAc(b1-2)Man(a1-3)]Man(b1-4)GlcNAc(b1-4)GlcNAc
# Outline: as §1
# [16] = molecular target: Fuc(a1-2)Gal(b1-3)[Fuc(a1-4)]GlcNAc(b1-2)Man(a1-3)[Fuc(a1-2)Gal(b1-3)[Fuc(a1-4)]GlcNAc(b1-2)Man(a1-6)]Man(b1-4)GlcNAc(b1-4)[Fuc(a1-6)]GlcNAc(b1-4)[Fuc(a1-6)]GlcNAc
# Outline: as §1
# [17] = molecular target: Fuc(a1-2)Gal(b1-3)[Fuc(a1-4)]GlcNAc(b1-3)[Fuc(a1-3)[Gal(b1-4)]GlcNAc(b1-6)]Gal(b1-4)Glc
# Outline: as §1
# [18] = molecular target: Fuc(a1-2)Gal(b1-3)[Fuc(a1-4)]GlcNAc(b1-3)[Gal(b1-4)GlcNAc(b1-6)]Gal(b1-4)Glc
# Outline: as §1
# Fuc(a1-2)Gal(b1-4)Glc = molecular target: Fuc(a1-2)Gal(b1-4)Glc
# Outline: as §1
# Fuc(a1-2)Gal(b1-4)Glc6S = molecular target: Fuc(a1-2)Gal(b1-4)Glc6S
# Outline: as §1
# Fuc(a1-2)Gal(b1-4)GlcNAc = molecular target: Fuc(a1-2)Gal(b1-4)GlcNAc
# Outline: as §1
# [19] = molecular target: Fuc(a1-2)Gal(b1-4)GlcNAc(b1-2)Man
# Outline: as §1
# [20] = molecular target: Fuc(a1-2)Gal(b1-4)GlcNAc(b1-2)Man(a1-3)[Fuc(a1-2)Gal(b1-4)GlcNAc(b1-2)Man(a1-6)]Man(b1-4)GlcNAc(b1-4)GlcNAc
# Outline: as §1
# [21] = molecular target: Fuc(a1-2)Gal(b1-4)GlcNAc(b1-2)Man(a1-3)[Fuc(a1-2)Gal(b1-4)GlcNAc(b1-2)Man(a1-6)]Man(b1-4)GlcNAc(b1-4)[Fuc(a1-6)]GlcNAc
# Outline: as §1
# [22] = molecular target: Fuc(a1-2)Gal(b1-4)GlcNAc(b1-2)[Fuc(a1-2)Gal(b1-4)GlcNAc(b1-4)]Man(a1-3)[Fuc(a1-2)Gal(b1-4)GlcNAc(b1-2)Man(a1-6)]Man(b1-4)GlcNAc(b1-4)GlcNAc
# Outline: as §1
# [23] = molecular target: Fuc(a1-2)Gal(b1-4)GlcNAc(b1-3)Gal(b1-4)GlcNAc
# Outline: as §1
# [24] = molecular target: Fuc(a1-2)Gal(b1-4)GlcNAc(b1-3)Gal(b1-4)GlcNAc(b1-2)Man(a1-3)[Fuc(a1-2)Gal(b1-4)GlcNAc(b1-3)Gal(b1-4)GlcNAc(b1-2)Man(a1-6)]Man(b1-4)GlcNAc(b1-4)GlcNAc
# Outline: as §1
binder,measurement,setting,value
rCnSL-proB (Clitocybe nebularis) (protein) PTFSPIFALLAFLPFGTLASLLPQTQLVFRINPNLPGPNDVFVGYRGTNNVVGAIYERDGIKDTPMNNGADAELGPGSYITDDLFTAQIFASGSAGNNPGTTATVCKIYADGVQWRGAPKGYLPVLYFGNGQAAEQTRQTYLQGLDIPGTAIRFANLAKTPNQGPTAPRQMVVPSGGLQTLLKASCFPANHAALPQVLSYFNVRAALPPGWNIRTGPEFPNWTN,glycan array binding signal (z-score),Fuc(a1-2)Gal,-0.11
same,glycan array binding signal (z-score),Fuc(a1-2)Gal(b1-3)GalNAc,-0.292
same,glycan array binding signal (z-score),[1],-0.1
same,glycan array binding signal (z-score),[2],-0.402
same,glycan array binding signal (z-score),[3],-0.69
same,glycan array binding signal (z-score),[4],-0.192
same,glycan array binding signal (z-score),[5],0.074
same,glycan array binding signal (z-score),Fuc(a1-2)Gal(b1-3)GlcNAc,-0.603
same,glycan array binding signal (z-score),[6],0.589
same,glycan array binding signal (z-score),[7],1.83
same,glycan array binding signal (z-score),[8],-0.144
same,glycan array binding signal (z-score),[9],0.037
same,glycan array binding signal (z-score),[10],-0.645
same,glycan array binding signal (z-score),[11],-0.201
same,glycan array binding signal (z-score),[12],-0.541
same,glycan array binding signal (z-score),[13],-0.282
same,glycan array binding signal (z-score),[14],-0.508
same,glycan array binding signal (z-score),[15],3.69
same,glycan array binding signal (z-score),[16],0.19
same,glycan array binding signal (z-score),[17],-0.291
same,glycan array binding signal (z-score),[18],0.806
same,glycan array binding signal (z-score),Fuc(a1-2)Gal(b1-4)Glc,-0.444
same,glycan array binding signal (z-score),Fuc(a1-2)Gal(b1-4)Glc6S,-0.528
same,glycan array binding signal (z-score),Fuc(a1-2)Gal(b1-4)GlcNAc,-0.503
same,glycan array binding signal (z-score),[19],-0.05
same,glycan array binding signal (z-score),[20],-0.08
same,glycan array binding signal (z-score),[21],2.04
same,glycan array binding signal (z-score),[22],0.484
same,glycan array binding signal (z-score),[23],-0.806
same,glycan array binding signal (z-score),[24],0.475
